# Laboratory results published in PubChem BioAssay AID504832 (National Center for Advancing Translational Sciences (NCATS), 2011).
# Out of some 310,000 compounds screened, about 18,000 (5.8%) were called active. Inconclusive results, whose numbers are uncertain, are shown with a selection of clear calls. The call rests on the fitted dose curve; in most records, active means well fitted inhibition curve with a large enough effect; inconclusive means small, poorly fitted or top-dose-only effect, or another doubt; inactive means no such curve, though single readings can be large or run the other way. Potencies of inconclusive entries are left out as doubtful fits.
# Test: Primary qHTS for delayed death inhibitors of the malarial parasite plastid, 48 hour incubation
# Details: P. falciparum luciferase growth in erythrocytes; series mostly up to 28.7 µM; activity change, negative = inhibition: at the top concentration
# Procedure, shortened: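 Here the parasites carry a stable luciferase gene and grow inside erythrocytes in Albumax-based RPMI medium with compound for one erythrocytic cycle. Activity is scored as loss of luminescent signal.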
# On the % scale 0 is the no-effect control and ±100 the full control effect; potency means the concentration at half of the fitted maximal effect; tags describe the fitted curve by direction and shape.
SMILES,Potency,"activity change, negative = inhibition"
CCN(CC)CCN1C(=O)c2ccccc2NC1c1ccc(N(C)C)cc1 (configuration not stated),active: 0.415 µM,
CCC(=O)N(CCC1(c2ccccc2OC)CCOC(C(C)C)C1)Cc1ccco1 (configuration not stated),active: 10.4 µM,
COc1ccc(Cl)cc1S(=O)(=O)N(C)CC(=O)N1CCCC1,,inactive: 5.19%
COc1cccc(Oc2ccc(C(F)(F)F)cc2NC(=O)c2cccc(F)c2)c1,"inconclusive [inhibitor, single point]",
CC(C)CC1Nc2ncnc(N3CCOCC3)c2N(Cc2ccc(Br)cc2)C1=O (configuration not stated),"inconclusive [inhibitor, single point]",
CCOc1ccc(NC(=O)CN(C)C(=O)C2(c3ccccc3)CC2)cc1OCC,"inconclusive [inhibitor, partial curve, poor fit]",
CCOC(=O)[C@H]1[C@H]2COc3ccc(Cl)cc3[C@@H]2N2C(=O)CN(Cc3ccco3)C(=O)[C@@]12C,"inconclusive [inhibitor, single point]",
COC(=O)N/N=C\c1cccc(OC(=O)c2cccs2)c1,,inactive: 24.3%
CCOCCCN(C(=O)Cn1nnc(-c2ccc(OC)c(OC)c2)n1)C(C(=O)NCC1CCCO1)c1ccc(F)cc1 (configuration not stated),"inconclusive [inhibitor, partial curve]",
CSc1ccc(CNCCCSc2ncccn2)cc1,,inactive: -13.6%
CCCN(CCC)C(=O)Cn1c(=O)c2sccc2n2c(=S)sc(-c3ccccc3)c12,"inconclusive [inhibitor, full curve, poor fit]",
CCOc1cc(N2CCOCC2)c(OCC)cc1NC(=O)COc1cccc2cccnc12,active: 3.29 µM,
CCN1CCN(C(=O)c2ccc3c(Cl)c4c(nc3c2)CCCC4)CC1,"inconclusive [inhibitor, full curve, poor fit]",
Fc1cccc(CNCCc2c[nH]c3ccccc23)c1,,inactive: 7.13%
O=C(CN1CCC(C(=O)c2ccc(F)cc2)CC1)Nc1ccc(F)cc1,"inconclusive [inhibitor, single point]",
C=C(C)C(=O)N1CC2(CC(c3cccc(NC(=O)COc4ccc(Cl)cc4)c3)=NO2)C[C@@H]1C(N)=O (some centres not stated),"inconclusive [inhibitor, partial curve]",
CC(=O)c1ccc(Oc2cc(C)nc(-n3nc(C)cc3C)n2)cc1,active: 11.7 µM,
O=C(Cc1cccs1)N1CCN(S(=O)(=O)c2ccc(F)cc2)CC1,,inactive: 15.4%
Cc1cc(=O)n(CC=C(Cl)Cl)c2ccccc12,"inconclusive [inhibitor, partial curve, poor fit]",
CCN(CC)c1ccc([N+](=O)[O-])cc1C(=O)O,,inactive: -8.48%
CC(SCc1ccccc1)C(=O)Nc1ccccc1 (configuration not stated),"inconclusive [inhibitor, full curve, poor fit]",
CN1CCN(NC(=O)CN(C)S(=O)(=O)c2cc(Cl)ccc2Cl)CC1,,inactive: -11%
Cc1ccc(Nc2nc(-c3c(C)nc4ncccn34)cs2)cc1,"inconclusive [inhibitor, partial curve, poor fit]",

SMILES,Potency,"activity change, negative = inhibition"
O=C(Nc1ccccc1)C1CCN(S(=O)(=O)c2ccc3c(c2)OCCO3)CC1,"inconclusive [inhibitor, single point]",
COC(=O)c1cc(N=Nc2sc(N)nc2C)cc(C(=O)OC)c1,"inconclusive [inhibitor, single point]",
CC12CCC(C)(c3nc4ccccc4nc31)C2(C)C,,inactive: 10.3%
Cc1ccc(S(=O)(=O)NNC(=S)Nc2ccc(Cl)cc2)cc1,,inactive: -6.78%
O=C(NC1CCCCC1)C(c1cccs1)N(Cc1cccs1)C(=O)c1ccco1 (configuration not stated),active: 14.7 µM,
O=C(Nc1cccc(Cl)c1)NC1(C(=O)NCc2cccs2)CCCCC1,"inconclusive [inhibitor, single point]",
CC(C)(C)OC(=O)NCCCC[C@H](NC(=O)c1nc[nH]c1C(=O)NC(c1ccccc1)c1ccccc1)C(=O)OC(C)(C)C,active: 3.7 µM,
CCOC(=O)CSc1nc(N2CCOCC2)c2c(c1C#N)CC(C)(C)OC2,,inactive: -10.9% [at 0.00184 µM]
CCOc1ccccc1N1C(=O)CC(Nc2ccc(N3CCOCC3)cc2)C1=O (configuration not stated),"inconclusive [inhibitor, full curve, poor fit]",
Cc1cccnc1NC(=O)CCc1c[nH]c2ccccc12,"inconclusive [inhibitor, full curve, poor fit]",
O=c1cc(CN2CCNCC2)nc2sccn12,,inactive: 1.05%
CC(=O)c1cnc2n(c1=O)CCS2,"inconclusive [inhibitor, single point]",
CCOC(=O)c1nc(C)sc1-c1ccnn1S(=O)(=O)c1ccc(C)cc1,"inconclusive [inhibitor, partial curve, poor fit]",
CCCOc1ccc(C(=O)c2nc3c(n2O)CCCC3)cc1,"inconclusive [inhibitor, single point]",
CCSc1sccc1C1C(C#N)=C(N)N(c2cccnc2)C2=C1C(=O)CC(C)(C)C2 (configuration not stated),"inconclusive [inhibitor, full curve, poor fit]",
COc1ccc(CCNC(=O)C(=O)Nc2ccc3c(c2)OCCO3)cc1OC,"inconclusive [inhibitor, single point]",
CCC(C)[C@@H](N)C(=O)N/N=C/c1cccc2nccnc12 (some centres not stated),"inconclusive [inhibitor, single point]",
COCCNC(=O)C(c1ccc(C)o1)N(C(=O)c1snc(C(N)=O)c1N)c1cc(C)cc(C)c1 (configuration not stated),"inconclusive [inhibitor, partial curve, poor fit]",
CCc1cc(C(=O)Nc2cc(S(=O)(=O)N(CC)CC)ccc2N2CCOCC2)sc1C,"inconclusive [inhibitor, single point]",
COc1ccc(C(=O)N/N=C/c2cccc3cccnc23)cc1,"inconclusive [inhibitor, single point]",
C/C(=N/NC(=O)CNC(=O)/C=C/c1ccco1)c1ccc(Cl)cc1,,inactive: 58.4%
COc1ccccc1OCCNC(=O)C1CC(=O)N(Cc2ccccc2)C1 (configuration not stated),"inconclusive [inhibitor, single point]",
Cc1ccc(-c2ccc(=O)n(Cc3cc(C)ccc3C)n2)cc1,"inconclusive [inhibitor, single point]",

SMILES,Potency,"activity change, negative = inhibition"
C=CCN1C(=O)C(Cc2ccc(OC)cc2)S/C1=N/N=C/c1ccco1 (configuration not stated),active: 9.28 µM,
Cc1ccc(C)c(NC(=O)c2ccc3c(c2)N(Cc2ccc(F)cc2)C(=O)CS3=O)c1 (configuration not stated),active: 3.29 µM,
Cc1nc2sccn2c(=O)c1S(=O)(=O)NCC(C)c1ccccc1 (configuration not stated),,inactive: 0.674%
Cn1nc([N+](=O)[O-])nc1Sc1ccc(Cl)cc1,"inconclusive [inhibitor, partial curve, poor fit]",
CC(=O)Nc1ccc(S(=O)(=O)NCCC(=O)N2CCC(Cc3ccccc3)CC2)cc1,"inconclusive [inhibitor, partial curve, poor fit]",
C#CCOCCOCCOCCNc1nc(N2CCOCC2)nc(N2CCN(C(=O)[C@H]([C@@H](C)CC)n3cc([C@@H](N)CC(C)C)nn3)CC2)n1,"inconclusive [inhibitor, full curve]",
COc1cccc(/C=N/NC(=O)c2ccc(OCc3cccc(Br)c3)cc2)c1,"inconclusive [inhibitor, single point]",
O=C(CSc1nnc(-c2ccc3c(c2)OCCO3)o1)N1CCCC1,,inactive: 71.2%
O=C(CC1C(=O)NCCN1Cc1ccc(-c2ccccc2)cc1)NC1CCC1 (configuration not stated),"inconclusive [inhibitor, full curve, poor fit]",
CCCCOc1ccc(C(=O)NCC(=O)NCC(c2ccco2)N2CCCCC2)cc1 (configuration not stated),"inconclusive [inhibitor, single point]",
CC(/C=C1\SC(=S)N(CCC(=O)Nc2ccc(O)cc2)C1=O)=C\c1ccccc1,"inconclusive [inhibitor, single point]",
CC(C(=O)NCc1ccco1)c1ccc([N+](=O)[O-])cc1 (configuration not stated),"inconclusive [inhibitor, partial curve]",
C=CCn1c(SCC(=O)NCC(=O)OCC)nnc1-c1ccccn1,"inconclusive [inhibitor, partial curve, poor fit]",
O=C(CCCSc1nc2ccccc2[nH]1)Nc1nnc(C2CC2)s1,"inconclusive [inhibitor, partial curve, poor fit]",
O=C1C(NS(=O)(=O)c2cccs2)=C(N2CCN(c3ccccc3)CC2)C(=O)c2ccccc21,"inconclusive [inhibitor, partial curve, poor fit]",
Cc1ccc(C)n1-c1ccc(C(=O)/C=C/N(C)C)cc1,"inconclusive [inhibitor, single point]",
COc1cccc(NC(=O)N2CCC(n3nnc4ccccc43)CC2)c1,,inactive: -19%
Cc1cc(NC(=O)CCC(=O)N(c2ccccc2C)C(C(=O)NC2CCCC2)c2ccccc2)no1 (configuration not stated),"inconclusive [inhibitor, partial curve, poor fit]",
COc1ccccc1Oc1ccc(S(=O)(=O)N2CCOCC2)cc1S(=O)(=O)N1CCOCC1,"inconclusive [inhibitor, single point]",
O=C(c1cccc(C(F)(F)F)c1)C1CCCN(Cc2ccccc2O)C1 (configuration not stated),"inconclusive [inhibitor, full curve]",
CN(CCO)c1c2c(nc3cc(-c4cccc(F)c4)nn13)CCCC2,,inactive: 80.7%
